Measurements reported in PubChem BioAssay AID651820 (National Center for Advancing Translational Sciences (NCATS), 2012).
About 12,000 (3.5%) of roughly 340,000 compounds were called active. This list was built around the results that the source calls inconclusive (neither active nor inactive); the mix of calls is not that of the screen. The call rests on the fitted dose curve; in most records, active means well fitted inhibition curve with a large enough effect; inconclusive means small, poorly fitted or top-dose-only effect, or another doubt; inactive means no such curve, though single readings can be large or run the other way. No potency is given beside an inconclusive call; the fits are too rough.

Assay: qHTS Assay for Inhibitors of Hepatitis C Virus (HCV)
Details: Huh7.5.1 HCVcc-Cre (HCVcc is cell-culture hepatitis C virus) infection, luciferase reporter, 44 h; activity change, negative = inhibition: at 41.8 µM (top of the series) unless noted
How it was run: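 Cells (1,000/well) were plated 4 h before compound, then infected with HCVcc-Cre virus (~0.5 moi). After 44 h further culture, infection was read as luciferase luminescence following a 15 min substrate incubation at room temperature.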
On the % scale 0 is the no-effect control and ±100 the full control effect; potency means the concentration at half of the fitted maximal effect; tags describe the fitted curve by direction and shape.

Row | SMILES | Potency | activity change, negative = inhibition
1 | CC1CC(C)CN(C(=O)COc2ccc([N+](=O)[O-])cc2Cl)C1 (stereo not drawn) | inconclusive [inhibitor, single point] | 
2 | N/C(=N/O)c1nc(N2CCCC2)nc(N(c2ccccc2)c2ccccc2)n1 | inconclusive [inhibitor, partial curve] | 
3 | CC(Oc1cc2oc(=O)cc(-c3ccccc3)c2cc1Cl)C(=O)NCC1CCC(C(=O)O)CC1 (stereo not drawn) |  | inactive: -10.1%
4 | CCN(CC)CCC=C(c1cccs1)c1cccs1 | inconclusive [inhibitor, single point] | 
5 | NC(=NCCc1c[nH]c2ccccc12)NS(=O)(=O)c1ccc2ccccc2c1 | inconclusive [inhibitor, single point] | 
6 | CC1(C)Cc2c(sc3ncnc(NNC(=S)NCc4ccccc4)c23)CO1 | inconclusive [inhibitor, partial curve] | 
7 | O=C(Nc1ccccc1)c1cc2ccccc2s1 | inconclusive [inhibitor, single point] | 
8 | CCCNC(=O)c1c(N)n(-c2cc(OC)cc(OC)c2)c2nc3ccccc3nc12 | inconclusive [inhibitor, partial curve] | 
9 | CCN1CCCC1CNCC(O)COc1ccc(C(C)(C)C)cc1C (stereo not drawn) | inconclusive [inhibitor, partial curve, poor fit] | 
10 | CCCn1c(=NC(=O)c2c(-c3c(F)cccc3Cl)noc2C)c(C(=O)OCC)cc2c(=O)n3ccccc3nc21 | inconclusive [inhibitor, partial curve] | 
11 | N#CC1c2ccccc2-n2nncc2CN1C(=O)CCc1ccccc1 (stereo not drawn) |  | inactive: 12.1%
12 | COc1ccc(NC2CC(=O)N(c3ccccc3)C2=O)cc1 (stereo not drawn) |  | inactive: 12.2%
13 | O=C(Nc1ccccc1N1CCOCC1)c1ccc(N2CCCC2=O)cc1 | inconclusive [inhibitor, single point] | 
14 | Cc1cc(OCC(=O)N(C)c2c(N)n(Cc3ccccc3)c(=O)[nH]c2=O)c(C(C)C)cc1Cl | inconclusive [inhibitor, single point] | 
15 | COc1ccc(-n2nc(C(=O)Nc3cc(OC)c(OC)c(OC)c3)c3ccccc3c2=O)c(OC)c1 | inconclusive [inhibitor, full curve] | 
16 | Cc1ccc(NC(=O)c2ccc(S(=O)(=O)N3CCCCCC3)cc2)nc1 | inconclusive [inhibitor, single point] | 
17 | CCN(CC)CCSc1nc2ccccc2c(=S)n1-c1ccccc1 | inconclusive [inhibitor, single point] | 
18 | OCC[C@@H]1C[C@@H](O)[C@H](O)[C@@]2(Cc3ccccc3O2)O1 |  | inactive: -7.01%
